This is an account of results in the supplement of paper PMC10338343.

± gives the standard deviation. This is a selection; strong and weak results do not stand in their true shares.
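Also: 1 nM active piRISC with 0.1 nM target library at 33 °C single turnover.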

For the assay, the system named is MIWI (PIWIL1) piRISC loaded with L1MC piRNA (30 nt). The assay is described as follows: pre-steady-state target cleavage rate (min^-1); MIWI and MILI are mouse PIWI proteins and EfPiwi is from a freshwater sponge; tags in brackets are library labels; higher = faster piRNA-guided slicing of the target. The note with it: guide: L1MC piRNA 5'p-UAACUAAAUACUAUGCAAGCUGUAGGUCCU; auxiliary factor: 500 nM mouse GTSF1. Summed up:
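In this Cleave-'n-Seq assay, uncleaved targets were sequenced and normalised to depth and to weakly complementary targets. They came from a transcribed, DNA-blocked target RNA library […] mixed with 1 nM active affinity-purified piRISC carrying one synthetic guide, with or without 500 nM GTSF1 partner protein, in HEPES–potassium acetate buffer at 33 °C for 0–8 or 0–960 min. After three trials were pooled and k3 was capped at 0.0001 min^-1, the pre-steady-state cleavage rate was obtained from a burst-and-steady-state fit.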
As for UCCUGCUACAGGUUGCAUAGUAUUUUCAAA, the “pre-steady-state target cleavage rate” value stood at 0.0858 ± 0.019. For UCCACCUUGUGCUUGCAUAGUAUUUUCAAA, the “pre-steady-state target cleavage rate” value was found to be 0.0664 ± 0.015. Then UCCUGGAUCAGCUUCCAAAGUAUUUAGUUA, with 0.0843 ± 0.0099. Then UCGACCUACAGCUUGCAUAUAUUUAGUUA, with 0.489 ± 0.044. Consider UCCUGGAUGUGCAUGCAUAGUAAUUAGUUA, for which the “pre-steady-state target cleavage rate” value came out at 0.0074 ± 0.0035. As to UCGACCUACAGCUUGCAUAGUAAAUAGAAA, the “pre-steady-state target cleavage rate” value worked out at 0.265 ± 0.053. Then UCCUCCUACAGCUUCCAUAGUAUUUACUUA, with 0.0319 ± 0.013; and UCCUGCUACAGCUUGCAUAGUAAAAACAAA, with 0.107 ± 0.028. Consider UCCUGGAUGUCCUUGCAUACUAUUUUGUUA, for which the “pre-steady-state target cleavage rate” value is 0.0044 ± 0.0041.

UCCUGGAUGACCUUGCAUAGUAUUUAGAUA: the “pre-steady-state target cleavage rate” value came out at 0.0694 ± 0.018. For UCCUCCUACACGAUGCAUAGUAUUUACAAA the value was 0.17 ± 0.033; for UGGACCUACAGCUACCAUAGUAUUUAGAAA, 0.0193 ± 0.0039; for UGGACCUACAGGUUGCAUAGUAUUUUCAAA, 0.123 ± 0.019. Take UCCUGGAUGUCCUUGCAUAGUAUUAAGUAA: the “pre-steady-state target cleavage rate” value was 0.00616 ± 0.0043. For UCGACCUACAGCUUGCAUUCUAUUUAGAAA the value was 0.137 ± 0.039; for UCCUGGUACAGCUUGCAUAGUAAAUUCAAA, 0.00975 ± 0.0053; for UCCUGCUACAGCUUGCAUAGUAUUAAGAUA, 0.196 ± 0.041. Then UGGACCUACAGCAAGCAUAGUAUUUACAAA, with 0.273 ± 0.051; and UCCACCUACAGCUUGCAUAGUAAAUAGAAA, with 0.167 ± 0.035; and UCCACCUACAGCAUGCAUAGUAUUUACAAA, with 0.375 ± 0.058.

Consider UCCUGGAUCAGCUUGCAAAGUAUUUUCAAA, for which the “pre-steady-state target cleavage rate” value stood at 0.0494 ± 0.013.

With UCCUGCUACAGCUUGCAUAGUAUAAUGAAA, the “pre-steady-state target cleavage rate” value worked out at 0.331 ± 0.071. Regarding UCCUGCUACAGCUUGCAUAGUUAUUAGAAA, the “pre-steady-state target cleavage rate” value was 0.0716 ± 0.022.

With UCCACCAACAGCUUGCAUAGUAUUUUCAAA, the “pre-steady-state target cleavage rate” value amounted to 0.37 ± 0.05.

Consider UGGACCUACAGCUUGCAUAUGUAUUUAGUUA, for which the “pre-steady-state target cleavage rate” value worked out at 0.00421 ± 0.0041. On to UCCUGGUACAGCUUGCAUAGUAAUUUCAAA, for which the “pre-steady-state target cleavage rate” value worked out at 0.0503 ± 0.021. Then UCCACCUAGUCCUUGCAUAGUAUUUAGAAA, with 0.109 ± 0.027; and UCCACCUACAGCUUCCAUAGUUUUUAGUUA, with 0.0349 ± 0.013; and UCCUGCUACAGCUUGCAUUCUAUUUAGUAA, with 0.0405 ± 0.011. Turning to UCCUGGAUGUGCUAGCUUAGUAUUUAGUUA, the “pre-steady-state target cleavage rate” value worked out at 0.00713 ± 0.0026.

Regarding UCCUCCUACAGCUUGCAUUCUAUUUAGAAA, the “pre-steady-state target cleavage rate” value amounted to 0.044 ± 0.015. Regarding UCCUGGAUCAGCUUGCAUAGAAAUUAGUUA, the “pre-steady-state target cleavage rate” value was determined as 0.0148 ± 0.0062. For UCCACCUACAGCUUGCAUAGUUAUUACAAA the value was 0.0703 ± 0.025. Then UCCUGGAUGUCGAUGCAUAGUAUUUCAGUUA, with 0.0085 ± 0.0052.

On to UCCUGGAUGAGCUAGGAUAGUAUUUAGUUA, for which the “pre-steady-state target cleavage rate” value came out at 0.157 ± 0.023. As for AGGACCUACAGCUUGCAAUGUAUUUACAAA, the “pre-steady-state target cleavage rate” value is 0.0775 ± 0.019. For UCCUGGAUGUCGUUGCAUAGUAUUUUGUUA the value was 0.00862 ± 0.0041; for UCCUGGAACAGCUUCGAUAGUAUUUAGUAA, 0.0767 ± 0.014; for UCCACCUACAGCUUCGUUAGUAUUUAGUAA, 0.0261 ± 0.0075.
